# From patent US20250230242A1, “PHARMACEUTICAL COMPOSITION OF ANTI-TIM-3 ANTIBODY AND HYPOMETHYLATING AGENT” (NANJING SHUNXIN PHARMACEUTICALS CO., LTD. OF CHIATAI …, priority 2022, published 2025)
# T1: human B7-H3 (Homo sapiens, UniProt Q5ZPR3)
# T1 construct: purchased Sino Biological Inc
# T1 sequence (Q5ZPR3 29-534): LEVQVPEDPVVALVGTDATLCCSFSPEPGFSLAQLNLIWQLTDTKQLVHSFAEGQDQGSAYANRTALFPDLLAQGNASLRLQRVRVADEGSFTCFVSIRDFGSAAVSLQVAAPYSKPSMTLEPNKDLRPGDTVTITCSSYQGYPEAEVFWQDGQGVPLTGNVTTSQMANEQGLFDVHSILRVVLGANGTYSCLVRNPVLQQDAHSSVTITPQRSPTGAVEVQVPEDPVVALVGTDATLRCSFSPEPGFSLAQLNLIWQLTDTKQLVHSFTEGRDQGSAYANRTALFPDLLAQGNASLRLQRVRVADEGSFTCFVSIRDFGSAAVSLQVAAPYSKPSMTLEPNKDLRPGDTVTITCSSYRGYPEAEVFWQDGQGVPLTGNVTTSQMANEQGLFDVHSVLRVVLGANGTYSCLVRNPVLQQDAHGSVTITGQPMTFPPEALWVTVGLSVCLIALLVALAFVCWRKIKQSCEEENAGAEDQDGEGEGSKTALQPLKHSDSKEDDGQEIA
# T2: rat TIM-3 (Rattus norvegicus, UniProt P0C0K5)
# T2 construct: purchased Chinese Academy of Sciences Shanghai Institute of Materia Medica
# T2 sequence (P0C0K5 22-282): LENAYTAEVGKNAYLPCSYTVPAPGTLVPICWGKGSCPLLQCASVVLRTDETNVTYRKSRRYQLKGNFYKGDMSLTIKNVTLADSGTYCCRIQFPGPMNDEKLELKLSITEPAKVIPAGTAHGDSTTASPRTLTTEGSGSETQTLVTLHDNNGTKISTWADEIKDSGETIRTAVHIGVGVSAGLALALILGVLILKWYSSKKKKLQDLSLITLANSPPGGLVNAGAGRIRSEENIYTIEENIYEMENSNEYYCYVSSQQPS
# T3: human B7-1 (Homo sapiens, UniProt P33681)
# T3 construct: purchased Sino Biological Inc
# T3 sequence (P33681 35-288): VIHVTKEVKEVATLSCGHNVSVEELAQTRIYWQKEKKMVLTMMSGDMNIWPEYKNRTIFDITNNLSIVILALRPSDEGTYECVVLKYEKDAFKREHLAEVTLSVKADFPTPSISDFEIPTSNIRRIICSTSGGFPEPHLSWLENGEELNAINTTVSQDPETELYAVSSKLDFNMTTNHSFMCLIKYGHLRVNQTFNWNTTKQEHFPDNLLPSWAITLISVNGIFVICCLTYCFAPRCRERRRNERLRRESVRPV
# How the values were obtained:
# human B7-H3 = target: T1, human B7-H3; test: ELISA binding to human B7-H3 recombinant protein; settings: at 100 μg/mL
# Method: (§1) After the 96-well plate was washed with PBS (pH 7.4), Goat anti-human Ig kappa chain-HRP conjugate (Millipore) was added for incubation at 37° C. for 1 h, and the HRP substrate o-phenylenediamine dihydrochloride (OPD) was added. After the reaction was stopped with H2SO4, the OD value was measured at a wavelength of 450 nm using a full-function microplate reader Synergy H4 (BioTek), and the binding EC50 was calculated based on the OD value.
# as §1, with “PBST for 3 times, Anti-His HRP (Sino Biological Inc.)” for “PBS (pH 7.4), Goat anti-human Ig kappa chain-HRP conjugate (Millipore)”, “room temperature” for “37° C.”, “OPD” for “o-phenylenediamine dihydrochloride (OPD)”
# [1] = in vivo, iv, 10 mg/kg
# [2] = test system: lung cancer HCC827 subcutaneous xenograft tumors; test: T cell subsets in TILs of HCC827 subcutaneous xenograft tumors in PBMC-NCG mice; format: in vivo, human immune reconstituted mice (PBMC-NCG); settings: Mean ± SD
# CHO-S-HuTIM-3 cells [3] = test: ADCC against CHO-S-HuTIM-3 cells; format: cell-based; settings: 10 or 100 μg/mL, effector cells PBMC, FIG. 3
# Method: After the reaction was completed, the mixture was centrifuged, and the supernatant was collected and measured for fluorescence values at 490 nm as excitation wavelength and 515 nm as emission wavelength. The cells were lysed directly with 0.1% Triton X-100 and centrifuged, and then the supernatant was collected to determine the total fluorescence value. The lysis rate (%) was calculated based on the fluorescence value.
# CHO-S-HuTIM-3 cells [4] = test: CDC against CHO-S-HuTIM-3 cells; format: cell-based; settings: 10 or 100 μg/mL, 10% human serum, FIG. 4
# Method: CHO-S-HuTIM-3 cells and Daudi cells (Shanghai Cell Bank of Chinese Academy of Sciences) were inoculated into a 96-well plate. […] Finally, CCK-8 reagent (Dojindo Laboratories) was added and reacted for 4 h. The OD value was measured at a wavelength of 450 nm using a microplate reader, and the lysis rate (%) was calculated.
# [5] = test system: cynomolgus monkey TIM-3 recombinant protein; test: ELISA binding to cynomolgus monkey TIM-3 recombinant protein
# Method: as §1, with “PBST for 3 times, Anti-His HRP (Sino Biological Inc.)” for “PBS (pH 7.4), Goat anti-human Ig kappa chain-HRP conjugate (Millipore)”, “room temperature” for “37° C.”, “OPD” for “o-phenylenediamine dihydrochloride (OPD)”
# [6] = Phase I safety, tolerability and pharmacokinetic study in subjects with advanced solid tumors; format: in vivo, human; settings: all dose groups, dose range 1-1800 mg/person
# mouse TIM-3 = target: T4, mouse TIM-3 (Mus musculus, UniProt Q8VIM0); test: ELISA binding to mouse TIM-3 recombinant protein; settings: at 100 μg/mL
# T4 construct: purchased Novoprotein
# T4 sequence (Q8VIM0 20-281): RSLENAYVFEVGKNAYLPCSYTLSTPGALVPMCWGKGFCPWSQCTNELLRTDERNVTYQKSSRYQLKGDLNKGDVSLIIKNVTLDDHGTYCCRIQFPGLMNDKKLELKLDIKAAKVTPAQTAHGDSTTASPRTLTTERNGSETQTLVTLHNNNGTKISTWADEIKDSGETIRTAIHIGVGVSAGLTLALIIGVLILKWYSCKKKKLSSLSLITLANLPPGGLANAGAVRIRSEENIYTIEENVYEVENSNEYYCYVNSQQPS
# Method: as §1
# as §1, with “PBST for 3 times, Anti-His HRP (Sino Biological Inc.)” for “PBS (pH 7.4), Goat anti-human Ig kappa chain-HRP conjugate (Millipore)”, “room temperature” for “37° C.”, “OPD” for “o-phenylenediamine dihydrochloride (OPD)”
# [7] = test system: IFN-γ secretion in MLR (mature DCs + CD4+ T cells from human PBMCs); test: IFN-γ secretion in mixed lymphocyte reaction (MLR); format: cell-based; settings: 100, 10 and 1 μg/mL, 5 days, FIG. 2
# Method: After the incubation was completed, the supernatant was aspirated, and the content of IFN-γ in the supernatant was detected by using an IFN-γ detection kit (Cisbio).
# rat TIM-3 = target: T2, rat TIM-3; test: ELISA binding to rat TIM-3 recombinant protein; settings: at 100 μg/mL
# Method: as §1
# as §1, with “PBST for 3 times, Anti-His HRP (Sino Biological Inc.)” for “PBS (pH 7.4), Goat anti-human Ig kappa chain-HRP conjugate (Millipore)”, “room temperature” for “37° C.”, “OPD” for “o-phenylenediamine dihydrochloride (OPD)”
# [8] = Multiple intravenous injections safety study in cynomolgus monkeys; format: in vivo; settings: i.v. once a week for 5 consecutive times
# [9] = target: T5, CHO-S-HuTIM-3 cells highly expressing human TIM-3 (Homo sapiens, UniProt Q8TDQ0); test: Binding to cells highly expressing human TIM-3 (cell ELISA)
# T5 construct: expressed in transfected cells; host or cells: CHO-S
# Method: The human TIM-3 gene was transfected into CHO-S cells, and the cells were incubated in an incubator at 37° C. with 5% CO2 using a Dynamis AGT medium (containing 4 mM glutamic acid and 3 μg/mL Puromycin) to give CHO-S-HuTIM-3 cells. […] After the reaction was stopped with H2SO4, the OD value was measured at a wavelength of 450 nm using a full-function microplate reader Synergy H4. The binding EC50 was calculated based on the OD value.
# human B7-1 = target: T3, human B7-1; test: ELISA binding to human B7-1 recombinant protein; settings: at 100 μg/mL
# Method: as §1
# as §1, with “PBST for 3 times, Anti-His HRP (Sino Biological Inc.)” for “PBS (pH 7.4), Goat anti-human Ig kappa chain-HRP conjugate (Millipore)”, “room temperature” for “37° C.”, “OPD” for “o-phenylenediamine dihydrochloride (OPD)”
# human EGFR = target: T6, human EGFR (Homo sapiens, UniProt P00533); test: ELISA binding to human EGFR recombinant protein; settings: at 100 μg/mL
# T6 construct: purchased Sino Biological Inc
# Method: as §1
# as §1, with “PBST for 3 times, Anti-His HRP (Sino Biological Inc.)” for “PBS (pH 7.4), Goat anti-human Ig kappa chain-HRP conjugate (Millipore)”, “room temperature” for “37° C.”, “OPD” for “o-phenylenediamine dihydrochloride (OPD)”
# Human TIM-3 = target: T7, Human TIM-3 (Homo sapiens, UniProt Q8TDQ0); test: ELISA binding to human TIM-3 recombinant protein
# T7 construct: purchased R&D
# Method: as §1
# as §1, with “PBST for 3 times, Anti-His HRP (Sino Biological Inc.)” for “PBS (pH 7.4), Goat anti-human Ig kappa chain-HRP conjugate (Millipore)”, “room temperature” for “37° C.”, “OPD” for “o-phenylenediamine dihydrochloride (OPD)”
# human PD-1 = target: T8, human PD-1 (Homo sapiens, UniProt Q15116); test: ELISA binding to human PD-1 recombinant protein; settings: at 100 μg/mL
# T8 construct: purchased Sino Biological Inc
# T8 sequence (Q15116 25-288): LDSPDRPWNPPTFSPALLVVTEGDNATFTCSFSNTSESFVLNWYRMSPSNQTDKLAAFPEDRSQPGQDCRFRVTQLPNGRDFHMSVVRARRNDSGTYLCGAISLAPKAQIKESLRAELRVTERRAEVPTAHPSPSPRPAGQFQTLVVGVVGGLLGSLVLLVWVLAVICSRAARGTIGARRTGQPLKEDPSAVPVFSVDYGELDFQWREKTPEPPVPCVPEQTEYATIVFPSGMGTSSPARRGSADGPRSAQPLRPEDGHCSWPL
# Method: as §1
# as §1, with “PBST for 3 times, Anti-His HRP (Sino Biological Inc.)” for “PBS (pH 7.4), Goat anti-human Ig kappa chain-HRP conjugate (Millipore)”, “room temperature” for “37° C.”, “OPD” for “o-phenylenediamine dihydrochloride (OPD)”
# [10] = 72 h after single i.v. 10 mg/kg
# [11] = 168 h after single i.v. 10 mg/kg
# [12] = 168 h after single i.v. 10 mg/kg, 10 mg/kg
molecule,measurement,setting,value
"h50B5: humanized anti-TIM-3 antibody (IgG4), heavy chain SEQ ID NO: 9, light chain SEQ ID NO: 10; humanized from mouse mAb 50B5 (antibody, Heavy chain for anti-TIM-3 antibody; Light chain for anti-TIM-3 antibody, humanized from mouse mAb 50B5) heavy: QVQLVQSGAEVKKPGASVKVSCKASGYSFTGYTINWVRQAPGQGLEWMGLFNPYNGGTTYAQKFQGRVTMTVDKSTSTVYMELSSLRSEDTAVYYCARRYYGYDAMDYWGQGTLVTVSSASTKGPSVFPLAPCSRSTSESTAALGCLVKDYFPEPVTVSWNSGALTSGVHTFPAVLQSSGLYSLSSVVTVPSSSLGTKTYTCNVDHKPSNTKVDKRV[not shown - human IgG4 Fc with S228P (EU numbers)] light: DIQMTQSPSSLSASVGDRVTITCKSSQSVLYSSNQKNHLAWYQQKPGKAPKLLIYWASTRESGVPSRFSGSGSGTDFTLTISSLQPEDFATYYCHQYLSSYTFGQGTKLEIKRTVAAPSVFIFPPSDEQLKSGTASVVCLLNNFYPREAKVQWKVDNALQSGNSQESVTEQDSKDSTYSLSSTLTLSKADYEKHKVYACEVTHQGLSSPVTKSFNRGEC",binding to human B7-H3 protein,human B7-H3,no obvious binding
same,AUC0-168 h,[1],8142.0 µg·h/mL
same,Cmax,[1],150.3 µg/mL
same,serum concentration 168 h after administration,[1],29.4 ± 2.3 µg/mL
same,CD3^+/CD45^+ (%) in TILs,[2]; [10],97.7 ± 1.1%
same,CD4^+/CD3^+ (%) in TILs,[2]; [10],52.7 ± 5.3%
same,CD8^+/CD3^+ (%) in TILs,[2]; [10],29.3 ± 3.9%
same,CD8^+/CD4^+ (%) in TILs,[2]; [10],56.8 ± 14.1%
same,CD3^+/CD45^+ (%) in TILs,[2]; [11],97.5 ± 2.5%
same,CD4^+/CD3^+ (%) in TILs,[2]; [11],43.3 ± 8.0%
same,CD8^+/CD3^+ (%) in TILs,[2]; [12],46.9±6.9%
same,CD8^+/CD4^+ (%) in TILs,[2]; [12],112.7±32.1%
same,ADCC against CHO-S-HuTIM-3 cells,CHO-S-HuTIM-3 cells [3],did not show significant ADCC
same,CDC against CHO-S-HuTIM-3 cells,CHO-S-HuTIM-3 cells [4],did not show significant CDC
same,"maximum binding Emax (OD450), cynomolgus monkey TIM-3 protein","[5]; ELISA, OD450",0.34±0.03
same,EC50 of binding to cynomolgus monkey TIM-3 protein,"[5]; ELISA, antibody coated at 2 μg/mL",1.639 ± 0.0141 µg/mL
same,binding to cynomolgus monkey TIM-3 protein,[5]; at 100 μg/mL,bound
same,dose-limiting toxicity (DLT),[6],no dose-limiting toxicity (DLT) was observed
same,binding to mouse TIM-3 protein,mouse TIM-3,no obvious binding
same,effect on IFN-γ secretion in MLR,[7],"significantly promoting the secretion of IFN-γ in MLR, showing greater activity than that of TSR022"
same,binding to rat TIM-3 protein,rat TIM-3,no obvious binding
same,no observed adverse effect level (NOAEL),[8],150 mg/kg
same,EC50 of binding to CHO-S-HuTIM-3 cells,[9]; FIG. 1,1.456 ± 0.338 µg/mL
same,"maximum binding Emax (OD450), CHO-S-HuTIM-3 cells","[9]; FIG. 1, OD450",0.21±0.03
same,binding to human B7-1 protein,human B7-1,no obvious binding
same,binding to human EGFR protein,human EGFR,no obvious binding
same,"maximum binding Emax (OD450), human TIM-3 protein","Human TIM-3; ELISA, OD450",0.52±0.03
same,EC50 of binding to human TIM-3 protein,"Human TIM-3; ELISA, coated antigen",0.291 ± 0.0141 µg/mL
same,binding to human TIM-3 protein,Human TIM-3; at 100 μg/mL,bound
same,binding to human PD-1 protein,human PD-1,no obvious binding
